From PubChem BioAssay AID1345082 (National Center for Advancing Translational Sciences (NCATS), 2018)
Among all 94,000 compounds or so, about 4,000 (4.3%) were called active. The inconclusive results got no clear call from the source; some entries with a clear call stand among them for comparison. Calls come from the whole dose curve; as a rule, active = well fitted inhibition curve with a large enough effect; inconclusive = small, poorly fitted or top-dose-only effect; inactive = no such curve, though single readings can be large or run the other way. Potencies of inconclusive entries are doubtful fits and often do not repeat.

Test: Cytotoxic Profiling in NIH 3T3 Cell Line of Diverse Libraries Using Quantitative High-Throughput Screening; note: nearly all actives have a fitted effect of over 55% in size
Details: NIH 3T3 viability, CellTiter-Glo ATP luminescence, 48-72 h; series mostly up to 96.7 µM
Procedure, shortened: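 NIH 3T3 cells at 400 cells/well received 23 nL of compound by pintool and were incubated 48 or 72 h at 37 °C. Viability was read as ATP-coupled CellTiter-Glo luminescence.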
Potency is the fitted concentration of half-maximal effect; tags give direction and shape of the fitted curve.

**Q.** Which Potency does the source give for `N#Cc1ccc(C(=O)N2CCO[C@@H](COc3ccccn3)[C@@H]2c2ccccc2)cc1` here?
**A.** inactive

**Q.** With `Cc1ccc(S(=O)(=O)N2CCc3c(C(=O)NCc4ccccn4)cccc32)cc1` as the molecule, how does the Potency read?
**A.** inconclusive: 50.1 µM [inhibitor, partial curve, poor fit]

**Q.** Which Potency does the source give for `CCn1cc(C(=O)N2C[C@@H](COC)[C@H](c3nc(C4CC4)no3)C2)cn1` here?
**A.** inactive

**Q.** Which Potency does the source give for `O=C(C1CCCCCC1)N1CCC(n2cc(-c3ccccc3)nn2)CC1` here?
**A.** inconclusive: 89.1 µM [inhibitor, partial curve, poor fit]

**Q.** With `CCOc1ccc2c(n1)CCN(C(=O)Cc1ccc(C)cc1)C2` as the molecule, how does the Potency read?
**A.** inconclusive: 44.7 µM [inhibitor, partial curve, poor fit]

**Q.** Which Potency does the source give for `O=C(CCC1CCCC1)NCC12CCC=C1N(CC1CC1)C(=O)CC2` (stereo unspecified) here?
**A.** inconclusive: 39.8 µM [inhibitor, partial curve, poor fit]

**Q.** For `COc1cc(F)ccc1-c1ccnc2nc(C(C)C)nn12`, which Potency is on record?
**A.** inactive

**Q.** Which Potency does the source give for `CCOCCNC(=O)C1CCCN(Cc2cccc(-c3ccccc3OC)c2)C1` (stereo unspecified) here?
**A.** inconclusive: 39.8 µM [inhibitor, partial curve]

**Q.** With `CCn1nccc1C(=O)N1CCC(CCOc2ccc(F)cc2)C1` (stereo unspecified) as the molecule, how does the Potency read?
**A.** inconclusive: 28.2 µM [inhibitor, partial curve]

**Q.** Which Potency does the source give for `O=C1NCCCCCCN(C(=O)c2cccnc2)[C@H]2CCC[C@@H]12` here?
**A.** inactive

**Q.** For `COc1ccc(-c2cc(-c3c(C)noc3C)c3cncn3c2)cc1OC`, which Potency is on record?
**A.** active: 22.4 µM

**Q.** With `CN1CCC2(C1)CN(Cc1ccccc1)c1ccc(C(=O)NC3COC3)cc12` (stereo unspecified) as the molecule, how does the Potency read?
**A.** inactive

**Q.** With `O=C(c1ccc(F)c(F)c1)N1CCN(c2cc(-c3cccs3)[nH]n2)CC1` as the molecule, how does the Potency read?
**A.** inconclusive: 39.8 µM [inhibitor, partial curve, poor fit]

**Q.** Which Potency does the source give for `O=C(NCc1ccc(F)cc1)c1nc(-c2cccnc2)c2cnccn12` here?
**A.** inconclusive: 39.8 µM [inhibitor, partial curve, poor fit]

**Q.** Which Potency does the source give for `CC1=C[C@@H](CNCc2ccc(C#N)cc2)[C@H](C(C)C)C[C@H]1Cc1nnc(-c2cccnc2)o1` here?
**A.** inconclusive: 50.1 µM [inhibitor, partial curve, poor fit]

**Q.** With `O=C(c1ccc(F)cc1)N1CCn2c(nn(-c3ccncc3)c2=O)C1` as the molecule, how does the Potency read?
**A.** inconclusive: 50.1 µM [inhibitor, partial curve, poor fit]

**Q.** Which Potency does the source give for `COc1ccc(CCNC(=O)c2noc(-c3ccc(F)cc3)n2)cc1OC` here?
**A.** inconclusive: 44.7 µM [inhibitor, partial curve]

**Q.** For `Cc1ccc(OCc2nc(C3CN(C(=O)c4cc(C)n(C)n4)C3)no2)cc1`, which Potency is on record?
**A.** inconclusive: 50.1 µM [inhibitor, partial curve, poor fit]

**Q.** With `CN(CCc1ccccn1)[C@H]1[C@@H]2OC[C@@H](O2)[C@@H](NCc2ccc(-c3ccccc3)cc2)[C@@H]1O` as the molecule, how does the Potency read?
**A.** inconclusive: 50.1 µM [inhibitor, partial curve, poor fit]

**Q.** For `Cn1c(Cn2cccn2)nnc1C1CCCN(Cc2nc(C(N)=O)no2)C1` (stereo unspecified), which Potency is on record?
**A.** inactive

**Q.** For `O=C(NC1CC1)c1ccc2nnc(-c3cccc(C(F)(F)F)c3)n2c1`, which Potency is on record?
**A.** inconclusive: 56.2 µM [inhibitor, partial curve, poor fit]

**Q.** With `O=C1COc2ccc(Nc3cccnc3)nc2CN1Cc1ccc(C(F)(F)F)cc1` as the molecule, how does the Potency read?
**A.** inconclusive: 56.2 µM [inhibitor, partial curve, poor fit]

**Q.** Which Potency does the source give for `COC(=O)[C@@H]1Cc2c([nH]c3ccccc23)[C@H]2C[C@@H](NCc3cccnc3)C[C@@H](c3ccc(C(F)(F)F)cc3)N21` here?
**A.** active: 28.2 µM

**Q.** For `O=C(c1ccc(-c2ncc3cnc(C4=CCOCC4)cn23)cc1)N1CC[S+](=O)([O-])CC1`, which Potency is on record?
**A.** inconclusive: 100 µM [inhibitor, single point]

**Q.** Which Potency does the source give for `Cc1nc([C@@H]2CN(C(=O)c3nccc4ccccc34)C[C@H]2C(N)=O)n[nH]1` here?
**A.** inactive

**Q.** With `O=C(c1cc(-c2ccccc2)n[nH]1)N1CCCC(Cc2noc(-c3cccnc3)n2)C1` (stereo unspecified) as the molecule, how does the Potency read?
**A.** inconclusive: 44.7 µM [inhibitor, partial curve, poor fit]

**Q.** Which Potency does the source give for `Cc1cccc(-c2nc3ccc(C(=O)NC(C)C)cc3o2)n1` here?
**A.** inconclusive: 39.8 µM [inhibitor, partial curve]

**Q.** Which Potency does the source give for `Cc1cc(S(=O)(=O)N2CCCC2c2noc(COc3ccc(F)cc3)n2)ccc1F` (stereo unspecified) here?
**A.** inconclusive: 50.1 µM [inhibitor, partial curve, poor fit]

**Q.** Which Potency does the source give for `Cn1ccc2c(C(=O)NCc3cccnc3)nc(-c3cccc4cc[nH]c34)cc21` here?
**A.** inconclusive: 15.8 µM [inhibitor, full curve, poor fit]

**Q.** With `CCOCC(=O)N1CCC(N2C(=O)C3(CCCCC3)C2c2ccccc2)CC1` (stereo unspecified) as the molecule, how does the Potency read?
**A.** inconclusive: 50.1 µM [inhibitor, partial curve, poor fit]

**Q.** Which Potency does the source give for `O=C(c1ccc(F)cc1)N1CCC(OC2CCN(Cc3ccccc3)CC2)CC1` here?
**A.** inconclusive: 44.7 µM [inhibitor, partial curve, poor fit]

**Q.** With `Cc1cc(C(=O)N2CCCCCCNC(=O)[C@@H]3CCC[C@@H]32)nn1C` as the molecule, how does the Potency read?
**A.** inactive

**Q.** Which Potency does the source give for `COc1ccc(C2(C(=O)N3CCc4ccccc4C3)CCOCC2)cc1` here?
**A.** inconclusive: 50.1 µM [inhibitor, partial curve, poor fit]

**Q.** Which Potency does the source give for `CN1C(=O)CO[C@H](c2ccc(NC(=O)c3ccc(-c4ccccc4)cc3)cc2)[C@H]1CO` here?
**A.** inconclusive: 11.2 µM [inhibitor, full curve, poor fit]

**Q.** With `O=C(Cc1ccsc1)N1CCOc2ccc(CN3CCc4ccccc4C3)cc2C1` as the molecule, how does the Potency read?
**A.** inconclusive: 39.8 µM [inhibitor, partial curve, poor fit]

**Q.** For `COCCNC(=O)CNC(=O)c1cccc(-c2ccsc2)c1`, which Potency is on record?
**A.** inactive

**Q.** With `COc1ccccc1-c1cnc2n[nH]c(-c3ccc4c(c3)OCO4)c2n1` as the molecule, how does the Potency read?
**A.** active: 35.5 µM

**Q.** Which Potency does the source give for `COc1cccc(-c2cccc(C(=O)N3CCCC3C(=O)N3CCOCC3)c2)c1` (stereo unspecified) here?
**A.** inactive

**Q.** With `O=C1NC2(CCCN(Cc3cncs3)C2)COc2ccccc21` (stereo unspecified) as the molecule, how does the Potency read?
**A.** active: 22.4 µM

**Q.** With `O=C(NCc1cccnc1)C1c2ccccc2C(=O)N(C2CCCC2)C12CCCCC2` (stereo unspecified) as the molecule, how does the Potency read?
**A.** inconclusive: 70.8 µM [inhibitor, single point]

**Q.** Which Potency does the source give for `CCCCCC(=O)Nc1nc2c(s1)C[C@@H]1[C@](C)(CO)[C@H](O)CC[C@@]1(C)[C@@H]2CC(=O)N[C@H](C)c1ccccc1` here?
**A.** inconclusive: 50.1 µM [inhibitor, partial curve, poor fit]

**Q.** Which Potency does the source give for `O=C(NCCNC(=O)c1cccc(-c2ccsc2)c1)Nc1ccc(Cl)cc1` here?
**A.** inconclusive: 14.1 µM [inhibitor, full curve, poor fit]

**Q.** Which Potency does the source give for `C=CCOc1c(OC)ccc2c1CN(CC)C(=O)CCN2CC(O)COc1ccc(OC)cc1` (stereo unspecified) here?
**A.** inconclusive: 3.55 µM [inhibitor, full curve, poor fit]

**Q.** For `CCOc1ccc(NC(=O)c2ccc3c(c2)N(C)C2CCCCCN2C3=O)cc1` (stereo unspecified), which Potency is on record?
**A.** inconclusive: 50.1 µM [inhibitor, partial curve, poor fit]

**Q.** With `C[C@H]1[C@@H]2[C@@H](O)C([C@H](C)C(=O)N3CCCC3)CC[C@@]2(C)CC[C@@H]1NC(=O)c1ccccc1` (stereo partly specified) as the molecule, how does the Potency read?
**A.** inactive

**Q.** With `CN1CCOc2c(C(=O)NCCc3cnc[nH]3)cc(-c3ccccc3F)cc21` as the molecule, how does the Potency read?
**A.** inconclusive: 56.2 µM [inhibitor, partial curve, poor fit]

**Q.** For `CN(Cc1cccc(N2CCN(S(=O)(=O)c3ccc4ccccc4c3)CC2)c1F)S(C)(=O)=O`, which Potency is on record?
**A.** inconclusive: 31.6 µM [inhibitor, partial curve]

**Q.** For `CC(=O)Nc1cccc(-c2cc(-c3ccncc3)c3cncn3c2)c1`, which Potency is on record?
**A.** inconclusive: 8.91 µM [inhibitor, full curve, poor fit]

**Q.** For `COc1ccc(C(=O)N2CCCC2C(=O)N2CCCC2c2nc3ccncc3[nH]2)cc1` (stereo unspecified), which Potency is on record?
**A.** inactive

**Q.** Which Potency does the source give for `C[C@H](C(=O)N1CCCC1)[C@@H]1CC[C@@]2(C)Cc3sc(-c4ccsc4)nc3[C@@H](C)[C@@H]2[C@H]1O` here?
**A.** inactive

**Q.** For `COc1cccc(-c2n[nH]c3c2CC(=O)N(Cc2ccccc2)C3)c1OC`, which Potency is on record?
**A.** inactive

**Q.** For `Cc1nc(N2CCN(C(=O)c3ccc4c(c3)OCO4)CC2)cc(C(F)(F)F)n1`, which Potency is on record?
**A.** inactive

**Q.** Which Potency does the source give for `Fc1cccc(-c2cnc([C@@H]3COCCN3Cc3ccccc3)[nH]2)c1` here?
**A.** inconclusive: 56.2 µM [inhibitor, partial curve, poor fit]

**Q.** With `CCOc1ccccc1C(=O)NC1CCN(c2cnn(CC)c(=O)c2)CC1` as the molecule, how does the Potency read?
**A.** inconclusive: 44.7 µM [inhibitor, partial curve, poor fit]

**Q.** With `O=C(N[C@H]1CCN2C(=O)c3cc(-c4cccs4)ccc3NC(=O)[C@H]12)c1cnccn1` as the molecule, how does the Potency read?
**A.** inconclusive: 126 µM [inhibitor, single point]

**Q.** Which Potency does the source give for `Cc1ccc(CN2CCCCCNC(=O)[C@@H]3CCC[C@@H]32)o1` here?
**A.** inconclusive: 50.1 µM [inhibitor, single point]

**Q.** For `COc1ccc(Cl)cc1-c1ccc2c(c1)C(=O)N1CC[C@H](N)[C@H]1C(=O)N2`, which Potency is on record?
**A.** inconclusive: 89.1 µM [inhibitor, partial curve]

**Q.** With `COc1ccc(C(=O)N2CC(C(=O)N(C)C)C3(CCOCC3)C2)cc1` (stereo unspecified) as the molecule, how does the Potency read?
**A.** inactive

**Q.** For `COc1ccc(-c2cc(C(=O)NC3CCOC3)c3cnn(C)c3n2)cc1` (stereo unspecified), which Potency is on record?
**A.** inconclusive: 89.1 µM [inhibitor, partial curve, poor fit]

**Q.** For `O=C(NCc1cccc(C(F)(F)F)c1)c1ccc2nnc(C3CCOCC3)n2c1`, which Potency is on record?
**A.** inconclusive: 44.7 µM [inhibitor, partial curve, poor fit]

**Q.** With `CN1CCC2(C1)CN(CC1CCOCC1)c1ccc(C(=O)Nc3ccccc3)cc12` (stereo unspecified) as the molecule, how does the Potency read?
**A.** inconclusive: 79.4 µM [inhibitor, partial curve, poor fit]
